Results: PubChem BioAssay AID720708 (National Center for Advancing Translational Sciences (NCATS), 2013)
Hit rate of the full screen: of about 360,000 compounds, about 660 (0.18%) were called active. The inconclusive results got no clear call from the source; some entries with a clear call stand among them for comparison. Calls follow the shape of the dose curve; as a rule, active = well fitted inhibition curve with a large enough effect; inconclusive = small, poorly fitted or top-dose-only effect; inactive = no such curve, though single readings can be large or run the other way. No potency is given beside an inconclusive call; the fits are too rough.

Each molecule was assayed against Rap guanine nucleotide exchange factor 4 (Homo sapiens) (UniProt Q8WZA2) (assay: qHTS for Antagonist of cAMP-regulated guanine nucleotide exchange factor 2 (EPAC2): primary screen). Conditions: EPAC2 GEF exchange of Rap1B-BODIPY-GDP, fluorescence; activity, negative = inhibition: at 114 µM (top of the series).
UniProt Q8WZA2, sequence (Q8WZA2 whole entry, looked up): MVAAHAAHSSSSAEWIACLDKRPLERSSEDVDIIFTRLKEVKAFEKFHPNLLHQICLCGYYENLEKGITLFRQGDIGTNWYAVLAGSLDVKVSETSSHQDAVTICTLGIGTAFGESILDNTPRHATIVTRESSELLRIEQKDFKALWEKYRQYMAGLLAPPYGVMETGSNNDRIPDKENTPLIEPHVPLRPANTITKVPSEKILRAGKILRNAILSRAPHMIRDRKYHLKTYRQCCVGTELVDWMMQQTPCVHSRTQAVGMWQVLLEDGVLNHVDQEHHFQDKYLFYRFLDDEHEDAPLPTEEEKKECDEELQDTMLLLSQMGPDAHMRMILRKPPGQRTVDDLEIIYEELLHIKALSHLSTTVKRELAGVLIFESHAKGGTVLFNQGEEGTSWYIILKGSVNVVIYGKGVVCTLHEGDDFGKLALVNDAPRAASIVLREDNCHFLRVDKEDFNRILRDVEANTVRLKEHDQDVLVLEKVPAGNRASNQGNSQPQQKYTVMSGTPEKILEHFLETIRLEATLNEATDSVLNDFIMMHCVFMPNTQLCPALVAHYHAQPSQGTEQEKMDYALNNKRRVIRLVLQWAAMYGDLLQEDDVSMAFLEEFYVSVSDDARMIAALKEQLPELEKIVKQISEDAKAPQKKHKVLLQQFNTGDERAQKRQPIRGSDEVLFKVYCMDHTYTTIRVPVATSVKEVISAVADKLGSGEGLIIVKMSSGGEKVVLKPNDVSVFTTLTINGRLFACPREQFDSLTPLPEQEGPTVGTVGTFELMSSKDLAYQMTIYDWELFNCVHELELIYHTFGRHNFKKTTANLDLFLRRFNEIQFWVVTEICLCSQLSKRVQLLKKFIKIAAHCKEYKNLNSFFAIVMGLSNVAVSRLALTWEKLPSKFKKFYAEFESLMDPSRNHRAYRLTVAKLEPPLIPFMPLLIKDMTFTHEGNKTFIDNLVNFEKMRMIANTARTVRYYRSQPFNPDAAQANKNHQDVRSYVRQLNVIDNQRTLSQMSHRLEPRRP
% is scaled to controls: 0 for no effect and ±100 for the full control effect; potency is read from the fitted curve at half-maximal effect; tags tell the direction and shape of the fitted curve.
Also: nearly all actives have a fitted effect of over 45% in size.

SMILES	Potency	activity, negative = inhibition
O=C(c1cn(Cc2ccccc2F)c2ncccc12)C(F)(F)F	inconclusive [inhibitor, single point]	
Cc1oc(-c2ccccc2)nc1CN1C(=O)CN=C(c2ccccc2)c2ccccc21	inconclusive [inhibitor, full curve]	
C[C@@H](N)Cc1cnc[nH]1	inactive	
COc1ccc(O)c(C(C)(C)C)c1	inconclusive [inhibitor, single point]	
Cc1ccc(N2C(=O)NC(=O)/C(=C\c3cc(C)n(-c4cc(C(=O)O)cc(C(=O)O)c4)c3C)C2=O)cc1	inactive	
CCOC(=O)[C@]12Cc3cc(C)ccc3[C@H]1N(Cc1ccccc1)C(=O)c1ccccc12	inconclusive [inhibitor, full curve]	
CCCCOP(=O)(c1ccc(N(C)C)cc1)C(O)c1ccc(C(C)C)cc1 (centres undefined)	inconclusive [inhibitor, partial curve]	
O=c1[nH]c(=S)n(-c2ccccc2F)c(O)c1C=Nc1ccc(N2CCOCC2)cc1	inactive	
CCOC(=O)[C@]12Cc3cc(C)ccc3[C@H]1N(C1CCCCC1)C(=O)c1ccccc12	inconclusive [inhibitor, full curve]	
CCn1nc(/C=C/c2ccccc2)nc2c(=O)n(C)c(=O)nc1-2	inconclusive [inhibitor, full curve, poor fit]	
Oc1ccccc1-[n+]1c(-c2ccccc2)cc(-c2ccccc2)cc1-c1ccccc1	inactive	
CC/C(=N\NC(=O)c1ccccc1O)c1c(O)n(C2CCCCC2)c(=O)[nH]c1=O	inconclusive [inhibitor, partial curve, poor fit]	
CCOc1ccc(N2C(=O)/C(=C/c3ccco3)C(=O)NC2=S)cc1	inconclusive [inhibitor, single point]	
Cc1cc(O)cc2c1O[C@@](C)(CCC[C@@H](C)CCC[C@@H](C)CCCC(C)C)CC2	inconclusive [inhibitor, full curve, poor fit]	
CCOC(=O)c1c(-n2c(C)cc(C=C3C(=O)NC(=S)NC3=O)c2C)sc2c1CCCC2	inconclusive [inhibitor, partial curve]	
CC1CCC(C)(NS(=O)(=O)OCC(Cl)(Cl)Cl)CC1 (centres undefined)	inconclusive [inhibitor, full curve]	
c1ccc(Nc2ccc3ccccc3c2)cc1	inconclusive [inhibitor, full curve, poor fit]	
COC(=O)C1=C(c2ccc3ccccc3c2)C[C@@H]2CC[C@H]1N2C(=O)NC1CC1	inconclusive [inhibitor, partial curve]	
CC(C)N1CCN(Cc2cccc([N+](=O)[O-])c2)CC1	inactive	
O=C1NC(=S)SC1=Cc1ccc(N(CCCl)CCCl)cc1	inconclusive [inhibitor, partial curve]	
Brc1ccccc1Cn1c(-c2cncs2)nc2ccccc21	inconclusive [inhibitor, partial curve]	
CC1N=C(c2ccccc2Cl)c2cc(Br)ccc2NC1=O (centres undefined)	inconclusive [inhibitor, partial curve]	
CCCCNC(=O)c1c(N)n(CCCOC)c2nc3ccccc3nc12	inconclusive [inhibitor, partial curve]	

SMILES	Potency	activity, negative = inhibition
O=c1[nH]c(=S)[nH]c(O)c1N=Nc1ccc2c(c1)OCCO2	inactive	
COc1cccc(C(c2nnnn2C2CCCCC2)N2CCC3(CC2)C(=O)NCN3c2ccccc2)c1OC (centres undefined)	inconclusive [inhibitor, single point]	
CCCCOC(=O)c1ccccc1C(=O)OCc1ccccc1	inconclusive [inhibitor, partial curve]	
CC(C)CCNC(=O)c1c(N)n(CC2CCCO2)c2nc3ccccc3nc12 (centres undefined)	inconclusive [inhibitor, partial curve]	
COP(=O)(/C=C(\Cl)c1ccccc1)/C=C(\Cl)c1ccccc1	inconclusive [inhibitor, partial curve]	
CC(C)CNP(=S)(c1ccccc1)C(C)(C)C (centres undefined)	inconclusive [inhibitor, partial curve]	
CC(Cc1ccccc1Sc1ccccc1O)N(C)C (centres undefined)	inactive	
COP(=O)(OC)c1nc(-c2cccc3ccccc23)oc1NCCc1ccccc1	inconclusive [inhibitor, partial curve]	
O=C1NC(=O)C(=Cc2ccc(Sc3ccccc3)o2)C(=O)N1	inactive	
Cn1cccc1/C=C1\C(=O)NC(=O)N(CCC2=CCCCC2)C1=O	inactive	
Cc1ccc(S(=O)(=O)NN=Cc2cc(Cl)ccc2O)cc1	inconclusive [inhibitor, partial curve]	
COc1cc(OC)c(/C=C2\C(=O)Nc3ccccc32)c(OC)c1	inconclusive [inhibitor, full curve]	
CC1(C)Cc2c(sc3nc4n(-c5ccccc5)c(=O)c(CCC(=O)O)nn4c(=O)c23)CO1	inconclusive [inhibitor, single point]	
CCOC(=O)[C@]12Cc3cc(Cl)ccc3[C@H]1N(Cc1ccccc1)C(=O)c1cc(OC)ccc12	inconclusive [inhibitor, full curve]	
CC1(C)C[C@H]2C=C(C=O)[C@]3(C=O)C[C@]3(C)[C@H]2C1	inconclusive [inhibitor, partial curve]	
Cc1ncc(CNC(=O)N(CCCl)N=O)c(N)n1	inconclusive [inhibitor, single point]	
CC(Cc1ccccc1)NC(=O)CCCCC(=O)NC(C)Cc1ccccc1 (centres undefined)	inactive	
CCOC(=O)[C@]12Cc3cc(C)ccc3[C@H]1N(CCC(=O)OC)C(=O)c1cc(OC)ccc12	inconclusive [inhibitor, partial curve]	
COC(=O)C1=C(c2ccc(OC(F)(F)F)cc2)C[C@@H]2CC[C@H]1N2C(=O)NCCOc1ccccc1	inconclusive [inhibitor, full curve]	
COc1cccc(C(C)(O)c2nc(-c3cccc(F)c3)cs2)c1 (centres undefined)	inconclusive [inhibitor, partial curve]	
CC1([N+](=O)[O-])COP(=O)(Nc2cccc(Cl)c2)OC1 (centres undefined)	inactive	
Oc1ccc(Cl)cc1Cc1ccccc1	inconclusive [inhibitor, partial curve]	
CN1C(=O)NC(=O)/C(=C/c2ccc([N+](=O)[O-])s2)C1=O	inactive	

SMILES	Potency	activity, negative = inhibition
CCOC(=O)C1CCN(/C=C2/C(=O)NC(=O)N(Cc3ccco3)C2=O)CC1	inactive	
O=P(Oc1ccccc1)(Oc1ccccc1)c1ccccc1	inconclusive [inhibitor, partial curve]	
CCCC/C(C)=C/[C@@H](NP(=O)(c1ccccc1)c1ccccc1)c1ccccc1	inconclusive [inhibitor, partial curve]	
Cc1ccc(OCC(=O)N2CCN(C3CCC(c4ccccc4)CC3)CC2)cc1 (centres undefined)	inconclusive [inhibitor, partial curve]	
O=P(Nc1cccnc1)(Oc1ccccc1)Oc1ccccc1	inconclusive [inhibitor, partial curve]	
CSc1ncc(/C=C2/C(=O)NC(=O)N(c3ccc(C)cc3)C2=O)cn1	inactive	
COc1ccc(-n2c(-c3ccc(C)cc3)nc3ccccc3c2=O)cc1	inconclusive [inhibitor, partial curve]	
COC(=O)C1=C(C(=O)OC)C2c3ccccc3C1c1ccccc12	inactive	
OCCNc1c2c(nc3ccccc13)CCCC2	inactive	
Cc1cccc(Cn2cc(C=O)c3ccccc32)c1	inconclusive [inhibitor, partial curve]	
Cc1cc(OC(C)C(=O)N[C@H](C(=O)O)c2ccccc2)c2c3c(c(=O)oc2c1)CCC3 (some centres undefined)	inconclusive [inhibitor, single point]	
CCOC(=O)C1=C(C)c2ccccc2OC1(C(=O)OCC)c1ccccc1 (centres undefined)	inconclusive [inhibitor, partial curve]	
COc1cc2c(cc1OC)C(C1c3cc4c(cc3CCN1C)OCO4)OC2=O (centres undefined)		inconclusive: -30.4% [inhibitor]
Cn1cccc1/C=C1\C(=O)NC(=O)N(Cc2ccccc2Cl)C1=O	inactive	
Nc1c(C(=O)NCC2CCCO2)c2nc3ccccc3nc2n1Cc1ccco1 (centres undefined)	inactive	
C=CCOC(=O)c1ccccc1C(=O)OCC=C	inconclusive [inhibitor, partial curve]	
Clc1ccc(CSC(Cn2ccnc2)c2ccc(Cl)cc2Cl)cc1 (centres undefined)	inconclusive [inhibitor, full curve, poor fit]	
Oc1ccccc1CN(CCc1ccccc1)Cc1ccccc1	inconclusive [inhibitor, partial curve]	
O=[N+]([O-])c1cc(O)c(O)c([N+](=O)[O-])c1	inconclusive [inhibitor, partial curve]	
CC(C)OCCCNC(=O)c1c(N)n(CC2CCCO2)c2nc3ccccc3nc12 (centres undefined)	inconclusive [inhibitor, single point]	
O=c1nc(/C=C/c2ccc(Cl)cc2Cl)cc(C(F)(F)F)[nH]1	active: 56.2 µM	
CC1Oc2cc3c(-c4c(O)cc(O)c5c(O)c6c(cc45)OC(C)C(C)C6=O)c(O)cc(O)c3c(O)c2C(=O)C1C (centres undefined)	inactive	
COC(=O)C1=C(c2ccc3ccccc3c2)C[C@@H]2CC[C@H]1N2C(=O)NCc1ccc(C(F)(F)F)cc1	inconclusive [inhibitor, single point]	
